Some of these densities may be calculated back from excess volumes.
Experiment: xn = mol fraction of the nth substance listed
Conditions: 101 kPa

CO + CC(O)C(=O)[O-].[NH3+]CCO
x1 = 1
Conditions | mass density [kg/m3]
293.15 K | 791.2
298.15 K | 786.5
303.15 K | 781.8
308.15 K | 777

CC(O)C(=O)[O-].[NH3+]CCO (stereo unspecified) + CO
mass density [kg/m3]
Conditions | 293.15 K | 298.15 K | 303.15 K | 308.15 K | 313.15 K
x2 = 0 | 1214.5 | 1210.2 | – | 1204.5 | –
x2 = 0.0393 | 1210.5 | – | 1203.1 | 1200.8 | 1197.9
x2 = 0.0944 | 1204.1 | 1200 | – | 1194.6 | 1191.8
x2 = 0.1969 | 1189.6 | – | – | 1180.2 | –
x2 = 0.3055 | 1170.5 | – | 1163.3 | 1160.8 | 1157.9
x2 = 0.3991 | 1150.6 | – | 1143.3 | 1140.7 | 1137.6
x2 = 0.4849 | 1128.8 | 1124.7 | 1121.4 | – | 1115.4
x2 = 0.5976 | 1093.2 | 1089 | 1085.5 | 1082.5 | 1079.2
x2 = 0.6985 | 1051 | 1046.8 | 1043.2 | 1039.9 | –
x2 = 0.7864 | 1002.1 | 997.9 | 994.1 | 990.5 | –
x2 = 0.8976 | 914.4 | 910 | 905.8 | 901.7 | 897.5
x2 = 0.9443 | 864.8 | – | 855.9 | 851.5 | 847.1
